Laboratory results reported in the RNAGym collection of RNA variant scans (doi:10.7554/elife.90254).
Read counts are not given, so values of variants with three or more changes are uncertain.

B1: LINE1-mini (parent)
chain: GGCAGAGCUCAACACAGCGUGGCAAAGUGGCUGUGGCUAGACUGCC

Variants of: B1
Experiment: self-cleavage, relative activity (ratio to wild type); higher = more cleavage; in vitro, sequencing; the parent is a self-cleaving ribozyme

Question: Which self-cleavage does the source give for GGCAGAGCUCAACAUAGCGUUGCAAAGUGGCUGUGGCUAGACUCCC [C15U G21U G44C] here?
Answer: 0.11

Question: With GGCAGAGCUCAACAUAACGUGGCAGAGUGGCUGUGGCUAGACUGCC [C15U G17A A25G] as the variant, how does the self-cleavage read?
Answer: 0.03

Question: For GGCAGAGCUCAACAUAGCGUGGAAAAGUGUCUGUGGCUAGACUGCC [C15U C23A G30U], which self-cleavage is on record?
Answer: 0.55

Question: With GGCAGAGCUCAACAUAGCGUGGCAAAGUGGCUGUGGGUAGAUUGCC [C15U C37G C42U] as the variant, how does the self-cleavage read?
Answer: 0.04

Question: Which self-cleavage does the source give for GGCAGAGCUCAACAUAGCGUGGCAAAGUGACAGUGGCUAGACUGCC [C15U G30A U32A] here?
Answer: 0.18

Question: Which self-cleavage does the source give for GGCAGAGCUCAACAUAGCAUGGCAAAGUGGCUGUGGUUAGACUGCC [C15U G19A C37U] here?
Answer: 0.02

Question: With GGCAGAGCUCAACAGAGCGUGGCAAAGGGGCUGAGGCUAGACUGCC [C15G U28G U34A] as the variant, how does the self-cleavage read?
Answer: 0.01

Question: With GGCAGAGCUCAACAUAACGUGGCAAAGUGGCUUCGACUUGACUGUC [C15U G17A G33U U34C G36A A39U C45U] as the variant, how does the self-cleavage read?
Answer: 0.01

Question: With GGCAGAGCUCAACAUAGCGAGGCAAAGUGGCUGUUGCUAGACUGCC [C15U U20A G35U] as the variant, how does the self-cleavage read?
Answer: 0.07

Question: With GGCAGAGCUCAACAUAGCGUGGCAAAGUGGCUGUGGCUAGACUGGU [C15U C45G C46U] as the variant, how does the self-cleavage read?
Answer: 0.09

Question: Which self-cleavage does the source give for GGCAGAGCUCAACAUAGUGUGGCAAAGUGGCUGUGGCUAUACUGCC [C15U C18U G40U] here?
Answer: 0.07

Question: With GGCAGAGCUCAACAUAGCGUGGGAAAGUGGCAGUGGCUAGACUGCC [C15U C23G U32A] as the variant, how does the self-cleavage read?
Answer: 0.16

Question: With GGCAGAGCUCAACAUAGCGUGGCAAAGUGGCUGUGUCUAGACUGUC [C15U G36U C45U] as the variant, how does the self-cleavage read?
Answer: 0.02

Question: With GGCAGAGCUCAACAUAGCGUAGCAAAGGGGCUGUGGUUAGACAGCC [C15U G21A U28G C37U U43A] as the variant, how does the self-cleavage read?
Answer: 0.01

Question: Which self-cleavage does the source give for GGCAGAGCUCAACAUAGCGUGGCAAAGUGGCUGUUGGUAGACUGCC [C15U G35U C37G] here?
Answer: 1.03

Question: For GGCAGAGCUCAACAUAGCGUGGCAAAGUGGUUGUGGCUAGACCGCC [C15U C31U U43C], which self-cleavage is on record?
Answer: 0.07

Question: For GGCAGAGCUCAACAUAGCGUGGCAAAGCAGCUGUGGCUAGACUGCC [C15U U28C G29A], which self-cleavage is on record?
Answer: 2.75

Question: Which self-cleavage does the source give for GGCAGAGCUCAACAUAGCGUGGGAAAGUUGCUGUGGCUAGACUGCC [C15U C23G G29U] here?
Answer: 2.2

Question: Which self-cleavage does the source give for GGCAGAGCUCAACACCGCGUGGCAAAGUGGCUGUGGCUAGGCUGAC [A16C A41G C45A] here?
Answer: 0.05

Question: With GGCAGAGCUCAACAUAGCGUGGCAAAGUGGUUGUGGCUAGACUGCG [C15U C31U C46G] as the variant, how does the self-cleavage read?
Answer: 0.12

Question: For GGCAGAGCUCAACAUAGCUUGGCAAAGCGGCUGUUGCUAGACUGCC [C15U G19U U28C G35U], which self-cleavage is on record?
Answer: 0.02

Question: With GGCAGAGCUCAACAUAGCGUGGUAAAGUGGCUGUGGCUAUACUAGC [C15U C23U G40U G44A C45G] as the variant, how does the self-cleavage read?
Answer: 0.04

Question: For GGCAGAGCUCAACAUAGCGGGGCAAGGUGGCUGUGGCUAGACUGCC [C15U U20G A26G], which self-cleavage is on record?
Answer: 0.19

Question: With GGCAGAGCUCAACACCGUCUGGCAAAGUGGGUGUGGCUAGACUGCC [A16C C18U G19C C31G] as the variant, how does the self-cleavage read?
Answer: 0.04

Question: Which self-cleavage does the source give for GGCAGAGCUCAACAUAGCGUGGCACAGUGGGUGUGGCUAGGCUGGC [C15U A25C C31G A41G C45G] here?
Answer: 0.08

Question: For GGCAGAGCUCAACAUAGCGAGGCAAAGUGGCUCUCGCUAGACUGCC [C15U U20A G33C G35C], which self-cleavage is on record?
Answer: 0.02

Question: For GGCAGAGCUCAACACCGAGUGGCAAAGUCGCUGUGGCUAGCCUGCC [A16C C18A G29C A41C], which self-cleavage is on record?
Answer: 0.08

Question: With GGCAGAGCUCAACAUAGCGUCCCAAAGUGACUGUGGCUACACUGCC [C15U G21C G22C G30A G40C] as the variant, how does the self-cleavage read?
Answer: 0.06

Question: For GGCAGAGCUCAACAUAGCGUGGCAAUGUAGCUGUGGCUAGACUGCC [C15U A26U G29A], which self-cleavage is on record?
Answer: 0.32

Question: With GGCAGAGCUCAACAUAGCGUGGCUGAGUGGCUGUGACUAGACUGCC [C15U A24U A25G G36A] as the variant, how does the self-cleavage read?
Answer: 0.04

Question: Which self-cleavage does the source give for GGCAGAGCUCAACAUAGCGUGGCAAAGUGGCUGUGUCUAGACGGCC [C15U G36U U43G] here?
Answer: 0

Question: Which self-cleavage does the source give for GGCAGAGCUCAACAUAGCGUGGCAAAGCGGCUAUGGCUAGACUGCC [C15U U28C G33A] here?
Answer: 0.59

Question: For GGCAGAGCUCAACAUAGCGUGACAAAGUGGCUGUGGCUAGAGUGCC [C15U G22A C42G], which self-cleavage is on record?
Answer: 0.13

Question: For GGCAGAGCUCAACAUAACGCGGCAUAGUGGCUGUGGCUAGACUGCC [C15U G17A U20C A25U], which self-cleavage is on record?
Answer: 0.04

Question: With GGCAGAGCUCAACACCGCGUGGCUAAGUGGCUGUGGCUAGACUGGC [A16C A24U C45G] as the variant, how does the self-cleavage read?
Answer: 0.02

Question: For GGCAGAGCUCAACAUAGCGUGGCAAAAUUGCUGUGGCUAGACUGCC [C15U G27A G29U], which self-cleavage is on record?
Answer: 2.4

Question: For GGCAGAGCUCAACAUCGCGUGGCAAAGUGGCUGUGGCUAAACUGCC [C15U A16C G40A], which self-cleavage is on record?
Answer: 0.11

Question: Which self-cleavage does the source give for GGCAGAGCUCAACAUAGCGUGGCAAAGUGGCUGUGGAAAGACAGCC [C15U C37A U38A U43A] here?
Answer: 0.02

Question: For GGCAGAGCUCAACAUAGCGAGGCAAAGUGGUUGUGGCUAGACUGAC [C15U U20A C31U C45A], which self-cleavage is on record?
Answer: 0.08

Question: For GGCAGAGCUCAACAUAGCGUGGCAAAGUGGCUUUGGCUAGACUGAC [C15U G33U C45A], which self-cleavage is on record?
Answer: 0.09

Question: For GGCAGAGCUCAACACCGACGGGCAAAGUGGCUGUGGCUAGACUGCC [A16C C18A G19C U20G], which self-cleavage is on record?
Answer: 0

Question: Which self-cleavage does the source give for GGCAGAGCUCAACAUAGCGUGGCAAAGUUGCUGUGGCUAGAUUGCC [C15U G29U C42U] here?
Answer: 0.71

Question: With GGCAGAGCUCAACACCGCGUGGCACAGUGGCUGUGGCUACACUGCC [A16C A25C G40C] as the variant, how does the self-cleavage read?
Answer: 0.02

Question: For GGCAGAGCUCAACAUAGCGUGGCAAAGUGGCUGUGGCUAGAUUGGC [C15U C42U C45G], which self-cleavage is on record?
Answer: 0.04

Question: With GGCAGAGCUCAACAUAGCGUGGGAAUGUGGCUGUGGCCAGACUGCC [C15U C23G A26U U38C] as the variant, how does the self-cleavage read?
Answer: 0.06

Question: Which self-cleavage does the source give for GGCAGAGCUCAACAUAGCGUGGCAAAGUGGAUCUGACUAGACUGCC [C15U C31A G33C G36A] here?
Answer: 0.05

Question: Which self-cleavage does the source give for GGCAGAGCUCAACAUAGCCUGGCAAAGUGGCUGUUGGUACACUGCC [C15U G19C G35U C37G G40C] here?
Answer: 0.02

Question: With GGCAGAGCUCAACAUAGCGAGACAAAGUGGCUGUGGCUAGACUGCC [C15U U20A G22A] as the variant, how does the self-cleavage read?
Answer: 0.23

Question: For GGCAGAGCUCAACACCGCGUGGCGAAGUGGCUGUGGCUUGACUGCC [A16C A24G A39U], which self-cleavage is on record?
Answer: 0

Question: For GGCAGAGCUCAACAUAGCGUGGCAAAGUGGCUGUGGCUCGACUGGC [C15U A39C C45G], which self-cleavage is on record?
Answer: 0.09

Question: Which self-cleavage does the source give for GGCAGAGCUCAACACCGGGUGGCAAAGUGGCUGUGGCUAGACUCCC [A16C C18G G44C] here?
Answer: 0.05

Question: With GGCAGAGCUCAACAUAGCGUGGCAAAGUGUCUGUGGCUAGACUGCG [C15U G30U C46G] as the variant, how does the self-cleavage read?
Answer: 0.22

Question: With GGCAGAGCUCAACACCGCGUGGAAAAGUGGCCGUGGCUAGACUGCA [A16C C23A U32C C46A] as the variant, how does the self-cleavage read?
Answer: 0.07

Question: Which self-cleavage does the source give for GGCAGAGCUCAACACCGCGUGGCAGAGUGGCUGUGGCUUGACUGCC [A16C A25G A39U] here?
Answer: 0.05

Question: For GGCAGAGCUCAACACCGCGUGGCAGUGUGGCUGUGGCUAGACUGCC [A16C A25G A26U], which self-cleavage is on record?
Answer: 0.02

Question: With GGCAGAGCUCAACACCGAGAGGCAAAGUGGCUGUGGCUAGACGGGC [A16C C18A U20A U43G C45G] as the variant, how does the self-cleavage read?
Answer: 0
